{"source": "PubChem BioAssay AID2546", "about": "(National Center for Advancing Translational Sciences (NCATS), 2010)", "note": "Hit rate of the full screen: of about 310,000 compounds, about 11,000 (3.5%) were called active. The inconclusive results got no clear call from the source; some entries with a clear call stand among them for comparison. Calls follow the shape of the dose curve; as a rule, active = well fitted inhibition curve with a large enough effect; inconclusive = small, poorly fitted or top-dose-only effect, or effect the other way; inactive = flat fitted curve, though single readings scatter. No potency is given beside an inconclusive call; the fits are too rough. Potency is read from the fitted curve at half-maximal effect; tags tell the direction and shape of the fitted curve.", "data": [{"experiment": "VP16 counterscreen qHTS for inhibitors of ROR gamma transcriptional activity;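 also: Gal4-VP16 expression switched on by copper sulfate through the metallothionein promoter; nearly all actives have a fitted effect of over 50% in size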", "details": "Drosophila S2 Gal4-VP16 UAS-luciferase, luminescence, 20 h; series mostly up to 53.6 µM", "values": [{"smiles": "COc1ccc(CNC(=S)NCc2ccc(F)cc2)cc1OC", "Potency": "inconclusive [inhibitor, single point]"}, {"smiles": "COc1ccccc1-c1nnc(Nc2nc3c(OC)cccc3s2)o1", "Potency": "inconclusive [inhibitor, full curve]"}, {"smiles": "CN(c1ccccc1)S(=O)(=O)c1ccc(NC(=S)NC(=O)c2ccccc2)cc1", "Potency": "inconclusive [inhibitor, single point]"}, {"smiles": "COC(=O)/C=C1\\OC(c2ccccc2)=CC1=O", "Potency": "inconclusive [inhibitor, single point]"}, {"smiles": "Cc1ccc(OCc2nc3ccccc3[nH]2)cc1", "Potency": "inconclusive [inhibitor, single point]"}, {"smiles": "CC(C)Cc1nc2ccccc2n1CCc1ccccc1", "Potency": "inconclusive [inhibitor, single point]"}, {"smiles": "O=C(c1ccc(S(=O)(=O)N2CCCC2)cc1)N1CCN(c2ccccc2)CC1", "Potency": "inactive"}, {"smiles": "CCn1nnnc1-c1ccc(OC)c(S(=O)(=O)Nc2ccc(C)c(C)c2)c1", "Potency": "inconclusive [inhibitor, full curve, poor fit]"}, {"smiles": "Cc1ccc(OC(=O)c2ccc(S(=O)(=O)N(C)C)cc2)c(-n2nc3ccccc3n2)c1", "Potency": "inactive"}, {"smiles": "O=C(CNC(=O)c1ccc(Cl)cc1Cl)OCC(=O)N1CCN(c2ccccc2)CC1", "Potency": "inactive"}, {"smiles": "O=C(Cc1ccccc1)NCC(=O)OCC(=O)c1ccccc1Cl", "Potency": "inconclusive [inhibitor, single point]"}, {"smiles": "O=C(CCC(=O)Nc1ccc(Cl)cc1Cl)N/N=C/c1ccc([N+](=O)[O-])o1", "Potency": "active: 15.8 µM"}, {"smiles": "CCOC(=O)N/N=C\\C=C\\c1ccc2c(c1)OCO2", "Potency": "inactive"}, {"smiles": "N#Cc1ccccc1NCc1ccccc1", "Potency": "inactive"}, {"smiles": "Cc1nc2ccc(NC(=O)c3ccc([N+](=O)[O-])cc3)cc2s1", "Potency": "inconclusive [activator, single point]"}, {"smiles": "Cc1cc(N2CCCCC2)n2ncc(-c3ccccc3)c2n1", "Potency": "active: 10 µM"}, {"smiles": "C/C(CCc1ccc2c(c1)OCO2)=N\\N=C(/N)SC1CC(=O)N(c2ccc(Cl)cc2)C1=O", "note": "(stereo not given)", "Potency": "inconclusive [inhibitor, partial curve]"}, {"smiles": "COC(=S)Nc1cccc(C(F)(F)F)c1", "Potency": "inconclusive [inhibitor, single point]"}, {"smiles": "Cc1ccc(Cn2ccnc2C(=O)Nc2ccccc2)cc1", "Potency": "inconclusive [activator, full curve]"}, {"smiles": "Cc1cc(C(=O)N/N=C2\\CC(=O)CC(C)(C)C2)c(C)n1-c1ccc(F)cc1", "Potency": "inactive"}, {"smiles": "c1ccc(OCc2nc3ccccc3[nH]2)cc1", "Potency": "inactive"}, {"smiles": "CCN(CC)c1ccc2c(Cl)c(Br)c(=O)oc2c1", "Potency": "active: 3.98 µM"}, {"smiles": "O=c1c(-c2ccc(Cl)cc2)nc2cncnc2n1Cc1ccccc1Cl", "Potency": "inactive"}, {"smiles": "Cc1ccccc1/C=C1\\SC(=S)N(/N=C/c2cc([N+](=O)[O-])ccc2O)C1=O", "Potency": "inconclusive [inhibitor, single point]"}, {"smiles": "CCOC(=O)N1CCN(C(=S)NC(=O)c2c(-c3c(Cl)cccc3Cl)noc2C)CC1", "Potency": "active: 0.794 µM"}, {"smiles": "N#Cc1ccsc1NC(=O)CN1CCN(S(=O)(=O)c2ccccc2C(F)(F)F)CC1", "Potency": "inactive"}, {"smiles": "CCOC(=O)c1nnn(-c2ccc([N+](=O)[O-])cc2[N+](=O)[O-])c1C", "Potency": "inconclusive [inhibitor, partial curve, poor fit]"}, {"smiles": "O=c1[nH]c(=S)c2ncn(-c3ccccc3)c2[nH]1", "Potency": "inactive"}, {"smiles": "O=C(CCCC(=O)c1ccccc1)Nc1ccc(O)cc1", "Potency": "inconclusive [inhibitor, single point]"}, {"smiles": "Cc1cc(NC(=O)CSc2nc3c(c(=O)n2Cc2ccccc2)SC(C)C3)no1", "note": "(stereo not given)", "Potency": "inconclusive [inhibitor, single point]"}, {"smiles": "CN1C(=O)/C(=C/c2cccc(Cl)c2)Sc2ccc(C(=O)N3CCOCC3)cc21", "Potency": "inactive"}, {"smiles": "Cc1cc(=O)[nH]c(SCC(=O)c2ccc(C(C)C)cc2)n1", "Potency": "inconclusive [inhibitor, partial curve]"}, {"smiles": "O=S(=O)(c1cccc(Br)c1)N1CCN(c2ccnc3cc(Cl)ccc23)CC1", "Potency": "inconclusive [inhibitor, single point]"}, {"smiles": "Cc1ccc(NC(=S)NNC(=O)c2c(Cl)c(C)nn2C)cc1", "Potency": "inconclusive [inhibitor, single point]"}, {"smiles": "O=C(NC(=S)NNC(=O)c1ccco1)c1ccc(F)cc1", "Potency": "inconclusive [inhibitor, single point]"}, {"smiles": "CCCCn1c(CN2CCN(c3ccc(F)cc3)CC2)nc2c1c(=O)n(C)c(=O)n2C", "Potency": "inactive"}, {"smiles": "CCn1c(-c2csc(-c3ccc(Cl)cc3)n2)n[nH]c1=S", "Potency": "inconclusive [inhibitor, full curve, poor fit]"}, {"smiles": "COc1ccc(CN(C(=O)CN2C(=O)C(C)Oc3ccccc32)C2CCCC2)c(OC)c1", "note": "(stereo not given)", "Potency": "inconclusive [inhibitor, single point]"}, {"smiles": "Cc1cc2cc3c(cc2nc1SCC(=O)Nc1nc(C)c(C)s1)OCO3", "Potency": "inconclusive [inhibitor, single point]"}, {"smiles": "CC(=Nc1ccc(Br)cc1)c1sc2ccccc2c1O", "Potency": "inconclusive [inhibitor, partial curve]"}, {"smiles": "COc1ccc(CCNC(=O)C2CCCN(c3nn4c(=O)cc(C)nc4s3)C2)cc1OC", "note": "(stereo not given)", "Potency": "inconclusive [inhibitor, single point]"}, {"smiles": "C/C(CC(=O)Nc1ccc(Cl)c(C(F)(F)F)c1)=N\\NC(=O)c1cc2ccccc2cc1O", "Potency": "inconclusive [inhibitor, single point]"}, {"smiles": "O=C(O)CCCN1C(=O)/C(=C/C=C/c2ccco2)SC1=S", "Potency": "inconclusive [inhibitor, single point]"}, {"smiles": "COc1ccc(C(=O)c2coc3ccc(O)c(CN(C)C)c23)cc1", "Potency": "inactive"}, {"smiles": "O=C(NC(=S)Nc1ccc(N2CCOCC2)cc1)c1ccc(Cl)cc1", "Potency": "active: 7.08 µM"}, {"smiles": "Cc1cccc(OCCC(=O)Nc2nnc(C)s2)c1", "Potency": "inactive"}, {"smiles": "CCCC(=O)OCCNc1cc(SCCC(=O)OC)c2nonc2c1[N+](=O)[O-]", "Potency": "inconclusive [inhibitor, single point]"}, {"smiles": "O=C(NNC(=S)NCc1ccc(Cl)cc1)c1cccnc1", "Potency": "inconclusive [inhibitor, single point]"}, {"smiles": "Cc1ccc(Cl)c(OCC(=O)N2CCc3ccccc3C2)c1", "Potency": "inconclusive [activator, partial curve]"}, {"smiles": "CC(C)C(=O)NC(c1ccco1)c1ccc2cccnc2c1O", "note": "(stereo not given)", "Potency": "active: 5.01 µM"}, {"smiles": "Cc1ccc(CN(Cc2cccnc2)C(=S)Nc2cc(Cl)ccc2C)cc1", "Potency": "inconclusive [inhibitor, single point]"}, {"smiles": "O=C(Nc1ccc(Cl)cc1)c1ccc(CN2CCc3ccccc3C2)cc1", "Potency": "inconclusive [inhibitor, partial curve]"}, {"smiles": "COc1ccc(-c2csc(NC(=S)NC(=O)c3cccs3)n2)cc1OC", "Potency": "active: 14.1 µM"}, {"smiles": "CCN(CC)c1ccc(/C=N/NC(=S)NCc2ccccc2)c(O)c1", "Potency": "active: 7.08 µM"}, {"smiles": "COc1ccc(OC)c(N=Cc2c(O)[nH]c3ccccc23)c1", "Potency": "inconclusive [inhibitor, single point]"}, {"smiles": "CCc1noc(C)c1C(=O)N1CCCC(C(=O)c2cc(F)ccc2OC)C1", "note": "(stereo not given)", "Potency": "inconclusive [activator, single point]"}, {"smiles": "O=c1oc2ccccc2cc1-c1cn2ccccc2n1", "Potency": "active: 2.24 µM"}, {"smiles": "CCN(CC)c1ccc(CNc2nc3ccccc3n2CCN2CCCCC2)cc1", "Potency": "inconclusive [inhibitor, single point]"}, {"smiles": "CCCCCCCc1cc2c(cn1)C(=O)C(C)(OC(C)=O)C(O)=C2Cl", "note": "(stereo not given)", "Potency": "inactive"}, {"smiles": "CCOC(=O)C1=C(C)Nc2ncnn2C1c1cc(Br)ccc1F", "note": "(stereo not given)", "Potency": "inconclusive [inhibitor, single point]"}, {"smiles": "COc1cc2cc(C(=O)N3CCOCC3)cc(-c3ccc(C)cc3)c2cc1OC", "Potency": "active: 8.91 µM"}, {"smiles": "CCCCCCCCn1c2c(c(=N)c3c1CCC3)CCCC2", "Potency": "active: 2.51 µM"}, {"smiles": "COc1ccc(CCN2C(=O)C3C4CCC(C4=C(C)C)C3C2=O)cc1OC", "note": "(stereo not given)", "Potency": "inconclusive [activator, single point]"}, {"smiles": "C/C(CC(=O)NCc1ccco1)=N\\NC(=O)c1ccc(Cl)cc1Cl", "Potency": "inactive"}, {"smiles": "COc1cccc(-c2oc3ccccc3c(=O)c2O)c1", "Potency": "active: 7.94 µM"}, {"smiles": "Cc1cc2nc(-c3ccc(SCC(=O)Nc4nccs4)nc3)[nH]c2cc1C", "Potency": "inconclusive [inhibitor, single point]"}, {"smiles": "COc1cccc(CNC(=S)NC2CCCC2)c1", "Potency": "active: 10 µM"}, {"smiles": "CCCCNCc1nc2ccccc2c(=O)[nH]1", "Potency": "inconclusive [inhibitor, single point]"}, {"smiles": "COc1ccc(N2C(=O)C(=O)/C(=C(/O)c3ccc(C)cc3)C2c2cccnc2)cc1", "note": "(stereo not given)", "Potency": "inconclusive [activator, single point]"}, {"smiles": "CCCc1c(C(=O)N/N=C/c2ccncc2)nnn1-c1nonc1N", "Potency": "inactive"}, {"smiles": "CC(=O)N1[C@H](Cc2ccccc2)C=C[C@]1(C)C(=O)NCc1ccc(C)o1", "Potency": "inactive"}, {"smiles": "Cc1cccc(NCC(=O)N/N=C\\c2cccc(Oc3ccccc3)c2)c1", "Potency": "inconclusive [inhibitor, single point]"}, {"smiles": "CCCCC/C=C\\C/C=C\\C/C=C\\CCCCC(=O)NC(C)C(=O)O", "note": "(stereo not given)", "Potency": "inactive"}, {"smiles": "O=C(NNC(=O)c1ccc([N+](=O)[O-])o1)c1ccccc1", "Potency": "active: 17.8 µM"}, {"smiles": "CCOc1ccccc1Nc1nc2ccccc2[nH]1", "Potency": "inconclusive [activator, single point]"}]}]}
